# Experimental data reported in PubChem BioAssay AID602340 (Broad Institute, 2012).
# Hit rate of the full screen: of about 330,000 compounds, about 2,600 (0.79%) were called active. Inconclusive means that the source gave no clear call. Such entries were picked first, then a sample of the others.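 Rule for the calls: active = mean ATP rescue above about 67%, or every replicate alone reaching that limit (limit read from the data, passing the limit was not always enough); inconclusive = no clear call, values can overlap the other calls; inactive = mean under the limit and some replicate under it.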
# Experiment: suppressors of statin myotoxicity in C2C12 myotubes, primary screen, cell-based, single point, plate reader (AID 602340);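 note: myotubes were challenged with 10 µM simvastatin during compound exposure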
# Conditions: C2C12 myotubes + simvastatin, ATP luminescence, 48 h; at 7.49 µM; stronger effect = higher value; scaled: DMSO 0, geranylgeraniol control 100
row,SMILES,rescue of ATP level
1,O=C(Nc1cccc(Cl)c1)c1nc[nH]c1C(=O)NCCCNC(=O)c1[nH]cnc1C(=O)Nc1cccc(Cl)c1,active: 106%
2,COc1ccc(NC(=O)N(C)C[C@H]2Oc3c(NS(=O)(=O)c4cccs4)cccc3C(=O)N([C@@H](C)CO)C[C@H]2C)cc1,active: 88.1%
3,C[C@@H]1CN([C@H](C)CO)C(=O)c2cc(NC(=O)Cc3ccccc3)ccc2O[C@@H](C)CCCCO[C@H]1CN(C)Cc1ccc(C(F)(F)F)cc1,inactive: -52.2%
4,Cc1nn(-c2ccccc2)c2sc(C(=O)N3CCCCC3)cc12,inconclusive: 74.1%
5,COc1ccc(NC(=O)Nc2ccc3c(c2)C(=O)N(C)C[C@H](OC)[C@H](C)CN[C@@H](C)CO3)cc1,inactive: -2.86%
6,CCC(=O)Nc1ccc(C(=O)Nc2cc(C)on2)cc1,active: 84.9%
7,CCOc1cccc(CN2CCCC(N3CCN(c4cccc(Cl)c4)CC3)C2)c1O (stereo not drawn),inactive: 7.82%
8,O=C(C1=C(O)C(=O)N(CCCN2CCOCC2)C1c1ccccn1)c1cc2ccccc2o1 (stereo not drawn),active: 72.8%
9,C[C@H]1CN([C@@H](C)CO)C(=O)c2cccc(NC(=O)Nc3ccccc3)c2O[C@H]1CN(C)CC1CCCCC1,inactive: -9%
10,C[C@H](CO)N1C[C@H](C)[C@H](CN(C)Cc2ccc(Oc3ccccc3)cc2)Oc2ccc(NC(=O)Nc3ccc(C(F)(F)F)cc3)cc2CC1=O,inconclusive: 65%
11,C[C@@H]1CN([C@H](C)CO)C(=O)Cc2cc(NC(=O)Nc3ccc(C(F)(F)F)cc3)ccc2O[C@H]1CN(C)S(C)(=O)=O,inactive: 19.2%
12,C[C@H](CO)N1C[C@H](C)[C@H](CN(C)S(=O)(=O)c2cn(C)cn2)Oc2c(NS(C)(=O)=O)cccc2C1=O,inconclusive: 70.3%
13,O=Cc1c(Sc2ccccc2)nc2ccccn2c1=O,inconclusive: 66.2%
14,CO[C@@H]1CN(C)C(=O)c2cc(NC(=O)NC(C)C)ccc2OC[C@H](C)N(Cc2ccc(-c3ccccn3)cc2)C[C@@H]1C,inactive: 23.4%
15,C[C@@H]1CCCCO[C@@H](CN(C)C(=O)C2CCCCC2)[C@H](C)CN([C@H](C)CO)C(=O)c2cc(NS(=O)(=O)c3ccccc3)ccc2O1,inconclusive: 90.6%
16,CC(c1ccco1)N(C(=O)c1ccc(C(F)(F)F)cc1)c1ccccn1 (stereo not drawn),inactive: 0.206%
17,O=C(Nc1nccs1)c1cncc(Br)c1,inconclusive: 13.8%
18,C[C@@H]1CCCCO[C@H](CN(C)C(=O)NC2CCCCC2)[C@H](C)CN([C@@H](C)CO)C(=O)c2cc(NC(=O)Nc3cccc4ccccc34)ccc2O1,inconclusive: 65.9%
